Experimental data published in PMC12136788.
The other results are listed elsewhere or left out.

B1: chr5:21408736:21408737:-_ENSMUSG00000042453_ENSMUST00000161356|mus_hu|mus_mus_mus_hu_False|48_58 (ssRNA)
RNA: GGGAGUUCUACAGUCCGACGAUCGUUGACAGAGUUGUAGAUGGUGGCUUCAUGGAACUGGAAAGGGGAGCAGCCAAUGCUAUUGGAAGAGGAAGGUAGGCACUGGGUCUGUACGAGCUGCCAGGAAUCCGAUCUUGCAUCCUUCAACAGAGGAUUGAGCAUCA
B2: chr10:127452298:127452299:+_ENSMUSG00000025395_ENSMUST00000026461|mus_mus|motif|central (ssRNA)
RNA: GGGAGUUCUACAGUCCGACGAUCAAAGCUUGAGUAGCUCCGGCAGCUCCGCAGGAUCAAAUGGCUCCAUGAAGUAAAGAACGGGACCCGGACAGGACUGACACGAGAAUUGGCGGGAACAAGACAGGCCUCCAUCCCUGCGCGCAACAGAGGAUUGAGCAUCA
B3: chr1:225977404:225977405:+_ENSG00000143742_ENST00000304786|hu_mus|motif|central (ssRNA)
RNA: GGGAGUUCUACAGUCCGACGAUCUACUCCAAAAGAAACAUACCACUGCAGCAAAAGUUACAUUUUAUUUCAUCUUAGACACAAUCGGGAAAGACCUUUUCUUGUUAACUCUUCAACAAAUUACUGACAUGAAUUUACCAGAAACAACAGAGGAUUGAGCAUCA
B4: chr1:46159212:46159213:+_ENSG00000159596_ENST00000372025|hu_mus|hu_hu_hu_mus_True|38_68 (ssRNA)
RNA: GGGAGUUCUACAGUCCGACGAUCUCUGAUCCCUCCCAAGAAAGCUAGGAAACCGGCUCCAUAAGCCAUCUGAGUAAAAGCUAGGACGGGGAUAUAAGUUUUUGUCAUUACCAUGAGAAGUGGGGGAGCAGUAAAGGGGAUUAACAACAGAGGAUUGAGCAUCA
B5: chr3:10015032:10015033:+_ENSMUSG00000027533_ENSMUST00000029046|mus_mus|mus_mus_mus_hu_True|68_88 (ssRNA)
RNA: GGGAGUUCUACAGUCCGACGAUCGUUUUUACCAUCACAAGUGAUGAUACAGUCUGGCUUGGCCAUUGCAGCCAUCUUUCGCAAAGCUAUUCCCACUCCUAGCUCCUUCAUGUAUUCAUCAAAGCCUUUGCUGUCCACCAGGCGCAACAGAGGAUUGAGCAUCA
B6: chr4:107939148:107939149:-_ENSMUSG00000034636_ENSMUST00000043616|mus_mus|FALSE|FALSE (ssRNA)
RNA: GGGAGUUCUACAGUCCGACGAUCCAUCUGGUUACCUCUGAAAAUUCCCACAGUUCCAUCAUUCAGGAGACCGUGGAAUGCUAUAGUCUGAAGAAGCCGGUCAGCCACCUCCUGUGGGAACACCCCAGGCUCCUGCAGACACAGCAACAGAGGAUUGAGCAUCA
B7: chr18:32579733:32579734:+_ENSMUSG00000024381_ENSMUST00000025239|mus_mus|FALSE|FALSE (ssRNA)
RNA: GGGAGUUCUACAGUCCGACGAUCUUUAUGGAAGUUUUCCUCCAGACCCGCGAUGCUCUGGAACGUGUUGACAUAGAAACCUACACGGCUGUUCCACAGGGAUGGCAGCUCCUCCUGCAGAUCCACGUUCAUCUCCUCGAACACCAACAGAGGAUUGAGCAUCA
B8: chr12:88041583:88041584:-_ENSMUSG00000021257_ENSMUST00000021682|mus_hu|FALSE|FALSE (ssRNA)
RNA: GGGAGUUCUACAGUCCGACGAUCUAAACCUUUAUUUGGAAAAAGAGUUUAAAUAACAAUUUAAAACCCCAUUUCACUUUCAAAACAGAAACAAGAAAGCAAGGAAAAGAUAAUCUAUCAAGCAUCUGCCCUCUGCUGUGGUUACAACAGAGGAUUGAGCAUCA
B9: chr17:64630434:64630435:-_ENSMUSG00000024083_ENSMUST00000172818|mus_hu|FALSE|FALSE (ssRNA)
RNA: GGGAGUUCUACAGUCCGACGAUCUCUGUUUAUUGUUUAUGAUUUACACAGAAAAUGAUGGGCUGGGGUUAUAGAACAAUAAACCAACCAUUACAUUUAGACCUGGGCUUUUGAAAAACUUGCAUUCCAUUUUAACAAUUCGUACAACAGAGGAUUGAGCAUCA
B10: 81895909_81896029_560_3pUTR_ENSMUSG00000031681_ENSMUST00000066091|mouse|control|control (ssRNA)
RNA: GGGAGUUCUACAGUCCGACGAUCGGGCAGCUCAGGGCCUUCUCCAGCUCUUCCAUGGCCCCUUUCUUCUUCUUCAGUUUCUUCACCAAAGCGUCCACAGCUUUCUCUGCCCAUUUCUCUUCUUCAUCGCCCUGUUUCCACCCACAACAGAGGAUUGAGCAUCA
B11: chr2:179515052:179515053:+_ENSMUSG00000000305_ENSMUST00000000314|mus_hu|mus_mus_mus_hu_False|58_58 (ssRNA)
RNA: GGGAGUUCUACAGUCCGACGAUCGCUGUCCCAUGCAGUCACCGUGAACGCCACCUGCUCGGAGGGGACCUGCAGCUCCCUAGUGGCGAAGACUGUCCCAUCUGCCCCAACUUUGAAGUCCAUGCUGUUGGUCUCAUAUUGUGUCAACAGAGGAUUGAGCAUCA
B12: chr3:33710417:33710418:+_ENSMUSG00000027677_ENSMUST00000099153|mus_mus|FALSE|FALSE (ssRNA)
RNA: GGGAGUUCUACAGUCCGACGAUCAGAAGUCACAGUUCUACUCAUGGAAAUUAAGACAAAGCUGUCCAGGGAACAUGCAAACUAUGGACAUAUUAAUGUAAAAGAAACUAAUGAUGACAGAACUGAGAAUCAAUUUAAAUUCUCCAACAGAGGAUUGAGCAUCA
B13: chr17:27085315:27085316:-_ENSG00000173065_ENST00000581407|hu_mus|motif|central (ssRNA)
RNA: GGGAGUUCUACAGUCCGACGAUCACUAAACCUAGAAGGGCAAUGUGUGUUGCCUGAGGAGAGCGUCCCGGCUCCCGGUCGGUACCCUGGGUGCUGAAUAUGAAGACUUCGACUAUCUGUGGGAUCAGGGGCUCGGGUGCCAGGCAACAGAGGAUUGAGCAUCA
B14: 6051737_6056632_1324_CDS_ENSMUSG00000015659_ENSMUST00000097432|mouse|control|control (ssRNA)
RNA: GGGAGUUCUACAGUCCGACGAUCAGUCAGAGCCCGCUGGCUGUCGUGCUGCCGCCAGGUUUUAAAUGCUGCUCCCAUUAGGCCAUGAAUAAAAAGGACAUCGGCUUUAAUGGGCUGACUUGUCCGACACUGGGGAUGCAGCACCAACAGAGGAUUGAGCAUCA
B15: chr4:63681588:63681589:-_ENSMUSG00000028364_ENSMUST00000107372|mus_mus|motif|central (ssRNA)
RNA: GGGAGUUCUACAGUCCGACGAUCGCUUGUGCCUGAUGAUUUUCUUGAGGACCCCACCUUCGGGAGUGAGGGCAAACAAAGCGGGAAAGAUGCCUGGCAGUAGCCAGGUCACGGCCCCCAUGGUGGAGGUUGGACUGGCUAGGUCAACAGAGGAUUGAGCAUCA
B16: 75440467_75440587_272_5pUTR_ENSMUSG00000029229_ENSMUST00000075452|mouse|control|control (ssRNA)
RNA: GGGAGUUCUACAGUCCGACGAUCGCCGUUGCCGCCGCCACCGCCGCCAUUACCGUGGGCAGGAACAACAACACAAUGUCAACAUCCGCCGGGGCCGCCACCCCCGCCAGCGCCGCCGCCCGCGCCAGCGCCGCCGCCGUCGCCCAACAGAGGAUUGAGCAUCA
B17: chr2:34708205:34708206:-_ENSMUSG00000026869_ENSMUST00000028225|mus_hu|FALSE|FALSE (ssRNA)
RNA: GGGAGUUCUACAGUCCGACGAUCUUCACUCAGGUAAGUUCUGAGCCUCAAAUAAUUUGGGUUCCCAAAGAUUUCUGCAAUUGUCUUGGAAUUGGCAAGUGCUUUCACUAGUUCAUAUUUGGCAUCCUUUGAAGCUUUGUCAUGCAACAGAGGAUUGAGCAUCA
B18: chr2:48026839:48026840:+_ENSG00000116062_ENST00000540021|hu_hu|hu_hu_hu_mus_False|78_108 (ssRNA)
RNA: GGGAGUUCUACAGUCCGACGAUCAUAGUGUGCCACUAGCGUCCUAAAUCUGGAACAAUGGCGAUCAUCCGAAAACUGGCCGAUGAAAAACUUGCCCAGUGAAGUGUCCACAAAGCAAACACCAUACACACGAGUGUGACCAGACAACAGAGGAUUGAGCAUCA
B19: chr2:232320318:232320319:-_ENSG00000115053_ENST00000322723|hu_hu|hu_hu_hu_mus_True|48_108 (ssRNA)
RNA: GGGAGUUCUACAGUCCGACGAUCACUGUUGAAGUCUACAAAACCAAACCCUUUGGAAGAACCAGUUUCCCGAUCAGUGACUAUUCUUGCCCGAACGGAGCCCUCAAAUGAUUCUUUUAAGGUCUCUUCAGUGGUAUCCUCAGACAACAGAGGAUUGAGCAUCA
B20: chr11:18536319:18536320:-_ENSG00000074319_ENST00000251968|perfect_dup|motif|central (ssRNA)
RNA: GGGAGUUCUACAGUCCGACGAUCUAGGUAGAUUUUCCCAUUUGCAUCCACAUGCUUUCCUGUUUUAAUAGUCAUUGAACGGGUAGGCUUAACAAAACAGAUAGGGGGGUUAUAUGGGUAUGUGUCCAGCAGCCACAGGCAUAUCAACAGAGGAUUGAGCAUCA
B21: 71481417_71481537_3246_3pUTR_ENSMUSG00000031328_ENSMUST00000144429|mouse|control|control (ssRNA)
RNA: GGGAGUUCUACAGUCCGACGAUCCUAGGCACUCAAGCUGUGCUUCACAGGGGCCUUCCACUGUCAGGCCCAGGCCACCAGUGCCAGCACCCUUUGUAUCAAUGGUGAAGCGGGCAGGGGAGCCUGCAUUGCCCCCCUGUAGCCCAACAGAGGAUUGAGCAUCA
B22: chr2:238002776:238002777:+_ENSG00000198612_ENST00000392008|hu_mus|FALSE|FALSE (ssRNA)
RNA: GGGAGUUCUACAGUCCGACGAUCGAUGGAGGUAUAAGCUUGAGAGACCAGGGCAAAGGCGCGUCUCCUUGUUGCAUCUCUAAGGGCUUCCAUGAUUGGCUGCACAGUCUCUGACCACUGGUGGGCGUUGAUGGUUGUAUAGAUCAACAGAGGAUUGAGCAUCA

target: T1, UNK ZnF1-3 (human, UniProt Q9C0B0 31-174); experiment: nsRBNS (natural sequence RNA bind-n-seq); RBNS binding buffer (assumed for nsRBNS): 25 mM Tris pH 7.5, 150 mM KCl, 3 mM MgCl2, 0.01% Triton X-100, 500 ug/ml BSA, 20 U/ml SUPERase-In, 4 C; UNK is unkempt and MSI1 is Musashi-1; names of the RNAs are library labels; protein concentration not given here; high values mean tight binding
T1 sequence: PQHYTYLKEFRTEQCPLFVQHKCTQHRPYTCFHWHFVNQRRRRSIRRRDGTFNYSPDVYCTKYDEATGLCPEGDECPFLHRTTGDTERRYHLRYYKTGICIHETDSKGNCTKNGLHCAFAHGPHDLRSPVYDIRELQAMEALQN

Question: With B1 as the binder, how does the binding signal read?
Answer: The binding signal was 1.58 enrichment R.

Question: With B2 as the binder, how does the binding signal read?
Answer: The binding signal was 1.65 enrichment R.

Question: B3 was tested. Which binding signal did it give?
Answer: The binding signal was 0.854 enrichment R.

Question: For B4, which binding signal is on record?
Answer: The binding signal was 1.47 enrichment R.

Question: How did the binding signal turn out when B5 was run?
Answer: Its binding signal is 0.787 enrichment R.

Question: With B6 as the binder, how does the binding signal read?
Answer: The binding signal was 0.86 enrichment R.

Question: How did the binding signal turn out when B7 was run?
Answer: The binding signal was 0.584 enrichment R.

Question: How did the binding signal turn out when B8 was run?
Answer: Its binding signal is 1.41 enrichment R.

Question: How did the binding signal turn out when B9 was run?
Answer: Its binding signal is 1.13 enrichment R.

Question: How did the binding signal turn out when B10 was run?
Answer: Its binding signal is 0.917 enrichment R.

Question: How did the binding signal turn out when B11 was run?
Answer: The binding signal was 0.778 enrichment R.

Question: For B12, which binding signal is on record?
Answer: The binding signal was 1.71 enrichment R.

Question: Which binding signal does the source give for B13 here?
Answer: Its binding signal is 0.828 enrichment R.

Question: Which binding signal does the source give for B14 here?
Answer: The binding signal was 0.362 enrichment R.

Question: How did the binding signal turn out when B15 was run?
Answer: The binding signal was 0.867 enrichment R.

Question: B16 was tested. Which binding signal did it give?
Answer: The binding signal was 0.72 enrichment R.

Question: How did the binding signal turn out when B17 was run?
Answer: The binding signal was 0.667 enrichment R.

Question: Which binding signal does the source give for B18 here?
Answer: Its binding signal is 1.22 enrichment R.

Question: How did the binding signal turn out when B19 was run?
Answer: The binding signal was 0.456 enrichment R.

Question: For B20, which binding signal is on record?
Answer: The binding signal was 0.798 enrichment R.

Question: With B21 as the binder, how does the binding signal read?
Answer: The binding signal was 0.711 enrichment R.

Question: With B22 as the binder, how does the binding signal read?
Answer: Its binding signal is 1.37 enrichment R.
